{"source": "PubChem BioAssay (Tox21)", "key": {"[1]": {"assay": "qHTS assay to identify small molecule that activate the aryl hydrocarbon receptor (AhR) signaling pathway - cell viability counter screen (AID 743086); note: potency is the fitted concentration of half-maximal effect; nearly all actives have a fitted effect of over 45% in size", "procedure,_shortened": "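HepG2-AhR-luc (HG2L7.5c1) cells, 4000/well, treated 24 h at 37 C with compound; viability measured as CellTiter-Fluor fluorescence after 30 min in the same wells as the luciferase read.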"}, "[2]": {"biological_target": "Peroxisome proliferator-activated receptor gamma (Homo sapiens) (UniProt P37231)", "sequence (P37231 whole entry, looked up)": "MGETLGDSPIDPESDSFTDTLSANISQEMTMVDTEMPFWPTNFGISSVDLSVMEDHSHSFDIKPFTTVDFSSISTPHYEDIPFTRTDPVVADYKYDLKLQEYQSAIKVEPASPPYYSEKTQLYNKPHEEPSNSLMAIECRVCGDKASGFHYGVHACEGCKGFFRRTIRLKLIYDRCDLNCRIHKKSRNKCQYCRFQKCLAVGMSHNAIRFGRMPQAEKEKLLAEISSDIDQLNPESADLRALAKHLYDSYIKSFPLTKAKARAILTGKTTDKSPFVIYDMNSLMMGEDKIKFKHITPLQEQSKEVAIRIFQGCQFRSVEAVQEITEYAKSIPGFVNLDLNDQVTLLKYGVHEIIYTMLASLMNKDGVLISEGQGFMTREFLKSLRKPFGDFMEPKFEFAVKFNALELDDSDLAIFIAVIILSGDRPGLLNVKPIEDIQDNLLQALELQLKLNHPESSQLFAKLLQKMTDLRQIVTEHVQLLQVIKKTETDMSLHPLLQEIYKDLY", "assay": "qHTS assay to identify small molecule antagonists of the peroxisome proliferator-activated receptor gamma (PPARg) signaling pathway (AID 743191; calls by dose curve; note: nearly all actives have a fitted effect of over 30% in size; note: potency is the fitted concentration of half-maximal effect; for ratio activity, negative = inhibition: % is set by controls: 0 for no effect and ±100 for the full control effect)", "details": "HEK293H PPARg-UAS-bla, beta-lactamase ratio, antagonist, 17 h; ratio activity, negative = inhibition: at 62.6 µM (top of the series) unless noted", "procedure,_shortened": "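GeneBLAzer PPARg UAS-bla HEK293H cells, 5 h post-plating, exposed to compounds 17 h at 37C. LiveBLAzer B/G FRET substrate added for 1 h at room temperature; beta-lactamase reporter read by fluorescence intensity.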"}, "[3]": {"assay": "qHTS assay to identify small molecule antagonists of the peroxisome proliferator-activated receptor gamma (PPARg) signaling pathway - cell viability counter screen (AID 743194); note: potency is the fitted concentration of half-maximal effect; nearly all actives have a fitted effect of over 55% in size", "details": "PPARg-bla HEK293H viability, CellTiter-Glo luminescence, 17 h, co-treated with 50 nM rosiglitazone; activity change, negative = cytotoxicity: at 62.6 µM (top of the series) unless noted", "procedure,_shortened": "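Cytotoxicity counter screen in PPARg-bla HEK293H cells, same wells as reporter assay. Compounds plus 50 nM rosiglitazone (final) for 17 h at 37 C, then viability read by CellTiter-Glo luminescence.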"}, "[4]": {"assay": "qHTS assay for small molecule agonists of the antioxidant response element (ARE) signaling pathway (AID 743202; active = well fitted activation curve with a large enough effect in the signal ratio in the repeat runs, not every such curve was filed as active; inconclusive = weak or mixed curves, or effect the other way; inactive = no such curve, though single readings can be large or run the other way; the % refers to the signal ratio; note: potency is the fitted concentration of half-maximal effect; for activation: % is set by controls: 0 for no effect and ±100 for the full control effect)", "details": "HepG2 ARE-bla reporter, beta-lactamase FRET, 16 h; activation: at 73.3 µM (top of the series) unless noted", "procedure,_shortened": "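HepG2 ARE-bla reporter line, 2,000 cells/well; 5 h preincubation 37 C/5% CO2; compound (DMSO) 16 h 37 C; B/G FRET substrate 2 h RT; fluorescence intensity.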"}, "[5]": {"assay": "qHTS assay to identify small molecule antagonists of the peroxisome proliferator-activated receptor delta (PPARd) signaling pathway - cell viability counter screen (AID 743213); note: nearly all actives have a fitted effect of over 50% in size; note: potency is the fitted concentration of half-maximal effect; for viability change, negative = cytotoxic: % is set by controls: 0 for no effect and ±100 for the full control effect", "details": "PPARd-bla HEK293H viability, CellTiter-Glo luminescence, 17 h; viability change, negative = cytotoxic: at 62 µM (top of the series) unless noted", "procedure,_shortened": "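Cytotoxicity counter screen: CellTiter-Glo luminescence read 30 min after addition, in the same wells as the reporter assay. There, PPARd UAS-bla HEK293H cells (3000/well) were treated 17 h at 37 C with compound and 300 nM L165041.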"}, "[6]": {"biological_target": "Peroxisome proliferator-activated receptor delta (Homo sapiens) (UniProt Q03181)", "sequence (Q03181 whole entry, looked up)": "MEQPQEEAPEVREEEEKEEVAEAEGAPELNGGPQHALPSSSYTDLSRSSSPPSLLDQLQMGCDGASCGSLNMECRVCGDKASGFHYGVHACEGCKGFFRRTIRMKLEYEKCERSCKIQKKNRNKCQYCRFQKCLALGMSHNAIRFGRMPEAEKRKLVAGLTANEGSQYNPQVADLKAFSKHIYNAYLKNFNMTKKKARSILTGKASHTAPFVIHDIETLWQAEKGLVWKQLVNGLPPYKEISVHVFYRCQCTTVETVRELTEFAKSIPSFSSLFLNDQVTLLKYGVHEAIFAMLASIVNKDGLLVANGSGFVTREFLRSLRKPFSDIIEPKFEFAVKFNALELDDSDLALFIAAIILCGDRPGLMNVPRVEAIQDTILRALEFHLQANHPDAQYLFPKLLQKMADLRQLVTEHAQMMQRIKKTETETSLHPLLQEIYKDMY", "assay": "qHTS assay to identify small molecule antagonists of the peroxisome proliferator-activated receptor delta (PPARd) signaling pathway (AID 743215; active = well fitted inhibition curve with a large enough effect in the signal ratio in the repeat runs, not every such curve was filed as active; inconclusive = weak or mixed curves, or effect the other way; inactive = no such curve, though single readings can be large or run the other way; the % refers to the signal ratio; note: potency is the fitted concentration of half-maximal effect)", "details": "HEK293H PPARd-UAS-bla, beta-lactamase FRET ratio, antagonist, 17 h; ratio activity, negative = inhibition: at 62 µM (top of the series) unless noted", "procedure,_shortened": "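HEK293H GeneBLAzer PPARd UAS-bla reporter cells; cpd + L165041 300 nM final, 17 h 37 C; LiveBLAzer B/G FRET substrate 2 h RT; fluorescence intensity read-out. Antagonist mode.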"}, "[7]": {"biological_target": "Bile acid receptor (Homo sapiens) (UniProt Q96RI1)", "sequence (Q96RI1 whole entry, looked up)": "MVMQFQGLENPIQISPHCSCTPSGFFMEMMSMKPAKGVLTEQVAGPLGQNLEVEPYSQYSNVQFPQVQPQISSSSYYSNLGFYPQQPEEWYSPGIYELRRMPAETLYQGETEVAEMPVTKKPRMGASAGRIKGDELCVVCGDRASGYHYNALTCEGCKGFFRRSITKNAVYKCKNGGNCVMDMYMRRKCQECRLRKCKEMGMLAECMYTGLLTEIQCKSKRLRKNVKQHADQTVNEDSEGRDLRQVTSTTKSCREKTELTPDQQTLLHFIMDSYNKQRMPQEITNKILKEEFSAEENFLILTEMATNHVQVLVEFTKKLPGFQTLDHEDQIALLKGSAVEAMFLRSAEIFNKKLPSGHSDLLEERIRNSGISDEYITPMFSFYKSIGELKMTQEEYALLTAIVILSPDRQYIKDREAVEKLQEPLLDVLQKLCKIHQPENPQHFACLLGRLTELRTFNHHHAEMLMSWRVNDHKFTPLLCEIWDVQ", "assay": "qHTS assay to identify small molecule antagonists of the farnesoid-X-receptor (FXR) signaling pathway (AID 743217; active = well fitted inhibition curve with a large enough effect in the signal ratio in the repeat runs, not every such curve was filed as active; inconclusive = weak or mixed curves, or effect the other way; inactive = no such curve, though single readings can be large or run the other way; the % refers to the signal ratio; note: potency is the fitted concentration of half-maximal effect)", "details": "HEK293T FXR-UAS-bla, beta-lactamase ratio, CDCA-stimulated, 16 h; activity change, negative = inhibition: at 62.6 µM (top of the series) unless noted", "procedure,_shortened": "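Read-out: beta-lactamase FRET fluorescence (LiveBLAzer B/G substrate, 2 h, room temperature) in GeneBLAzer FXR-UAS-bla HEK 293T cells. Compounds were co-dosed with 50 uM chenodeoxycholic acid (final) and incubated 16 h at 37 °C.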"}, "[8]": {"assay": "qHTS assay to identify small molecule agonists of the farnesoid-X-receptor (FXR) signaling pathway - cell viability counter screen (AID 743218); note: nearly all actives have a fitted effect of over 45% in size; note: potency is the fitted concentration of half-maximal effect", "details": "FXR-bla HEK293T viability, CellTiter-Glo luminescence, 16 h; viability change, negative = cytotoxic: at 62.6 µM (top of the series) unless noted", "procedure,_shortened": "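Luminescence from CellTiter-Glo, read after 30 min at RT, reports viability of GeneBLAzer FXR-UAS-bla HEK 293T cells treated 16 h with compounds in the wells used for the beta-lactamase reporter.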"}, "[9]": {"assay": "qHTS assay to identify small molecule antagonists of the farnesoid-X-receptor (FXR) signaling pathway - cell viability counter screen (AID 743221; active = well fitted cell-killing curve with a large enough effect in the repeat runs, not every such curve was filed as active; inconclusive = weak or mixed curves, or effect the other way; inactive = no such curve, though single readings can be large or run the other way; note: potency is the fitted concentration of half-maximal effect; nearly all actives have a fitted effect of over 50% in size)", "details": "FXR-bla HEK293T viability, CellTiter-Glo luminescence, 16 h; activity change, negative = cytotoxicity: at 62.6 µM (top of the series) unless noted", "procedure,_shortened": "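In GeneBLAzer FXR-UAS-bla HEK 293T cells stimulated with 50 uM chenodeoxycholic acid (final), compounds acted for 16 h at 37 C. Viability was assessed afterwards by CellTiter-Glo luminescence.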"}, "[10]": {"assay": "qHTS assay for small molecule activators of the heat shock response signaling pathway - cell viability counter screen (AID 743209); note: potency is the fitted concentration of half-maximal effect; nearly all actives have a fitted effect of over 50% in size", "details": "HSE-bla HeLa viability, CellTiter-Glo luminescence, 5 h; activity change, negative = cytotoxicity: at 62.6 µM (top of the series) unless noted", "procedure,_shortened": "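HSE-bla HeLa; 1500 cells/well; overnight 37 C, 5% CO2; compound 5 h 37 C; LiveBLAzer B/G substrate 2.5 h RT; CellTiter-Glo 30 min RT; luminescence.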"}, "[11]": {"assay": "qHTS assay for small molecule activators of the heat shock response signaling pathway (AID 743210; active = well fitted activation curve with a large enough effect in the signal ratio in the repeat runs, with a control signal flat, not every such curve was filed as active; inconclusive = weak or mixed curves; the % refers to the signal ratio; note: potency is the fitted concentration of half-maximal effect)", "details": "HeLa HSE-bla reporter, beta-lactamase ratio, 5 h; activation: at 62.6 µM (top of the series) unless noted", "procedure,_shortened": "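Beta-lactamase reporter read-out: FRET substrate fluorescence after 2.5 h at RT, following 5 h compound treatment at 37 C of HeLa cells carrying HSE-driven bla reporter; quantitative HTS format.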"}, "[12]": {"assay": "qHTS assay to identify small molecule agonists of the peroxisome proliferator-activated receptor delta (PPARd) signaling pathway - cell viability counter screen (AID 743211); note: potency is the fitted concentration of half-maximal effect; nearly all actives have a fitted effect of over 55% in size", "details": "PPARd-bla HEK293H viability, CellTiter-Glo luminescence, 17 h; activity change, negative = cytotoxicity: at 62.6 µM (top of the series) unless noted", "procedure,_shortened": "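Luminescent ATP viability assay (CellTiter-Glo, 30 min RT) in UAS-bla HEK293H cells carrying the PPAR delta reporter construct, 3000 cells/well, after a 17 h compound treatment at 37 C.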"}, "[13]": {"biological_target": "Peroxisome proliferator-activated receptor delta (Homo sapiens) (UniProt Q03181)", "assay": "qHTS assay to identify small molecule agonists of the peroxisome proliferator-activated receptor delta (PPARd) signaling pathway (AID 743212; calls by dose curve; note: potency is the fitted concentration of half-maximal effect)", "details": "HEK293H PPARd-UAS-bla, beta-lactamase FRET ratio, 17 h; activation: at 62.6 µM (top of the series) unless noted", "procedure,_shortened": "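Read-out: beta-lactamase FRET fluorescence after 2 h room-temperature incubation with LiveBLAzer B/G substrate. Cells were HEK293H carrying a UAS-bla reporter for PPARd, treated at 37 C with DMSO-dissolved compounds.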"}, "[14]": {"biological_target": "Vitamin D3 receptor (Homo sapiens) (UniProt P11473)", "sequence (P11473 whole entry, looked up)": "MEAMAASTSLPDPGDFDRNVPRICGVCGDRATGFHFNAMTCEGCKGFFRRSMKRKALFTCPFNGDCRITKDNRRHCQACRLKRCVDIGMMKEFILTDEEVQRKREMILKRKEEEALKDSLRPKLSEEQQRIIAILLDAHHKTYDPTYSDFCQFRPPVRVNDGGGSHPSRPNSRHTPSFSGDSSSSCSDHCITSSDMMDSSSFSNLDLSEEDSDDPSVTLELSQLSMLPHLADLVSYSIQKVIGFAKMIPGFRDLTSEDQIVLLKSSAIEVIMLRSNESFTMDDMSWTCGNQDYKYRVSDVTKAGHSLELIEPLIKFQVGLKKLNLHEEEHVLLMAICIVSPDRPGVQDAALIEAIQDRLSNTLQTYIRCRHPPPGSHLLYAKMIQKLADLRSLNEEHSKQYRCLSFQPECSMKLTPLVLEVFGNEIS", "assay": "qHTS assay to identify small molecule agonists of the vitamin D receptor (VDR) signaling pathway (AID 743222; calls by dose curve; note: potency is the fitted concentration of half-maximal effect)", "details": "HEK293T VDR-UAS-bla, beta-lactamase FRET ratio, 16 h; activation: at 63.5 µM (top of the series) unless noted", "procedure,_shortened": "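Beta-lactamase reporter readout (LiveBLAzer B/G FRET, 2 h RT) in VDR-bla cells after 16 h compound treatment at 37C, 5% CO2; cells pre-incubated 4 h before pin transfer of DMSO solutions.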"}, "[15]": {"biological_target": "Vitamin D3 receptor (Homo sapiens) (UniProt P11473)", "assay": "qHTS assay to identify small molecule antagonists of the vitamin D receptor (VDR) signaling pathway (AID 743223; active = well fitted inhibition curve with a large enough effect in the signal ratio in the repeat runs, not every such curve was filed as active; inconclusive = weak or mixed curves, or effect the other way; inactive = no such curve, though single readings can be large or run the other way; the % refers to the signal ratio; note: % is set by controls: 0 for no effect and ±100 for the full control effect)", "details": "VDR-UAS-bla HEK293T, beta-lactamase FRET ratio, 16 h; activity change, negative = inhibition: at 61 µM (top of the series) unless noted", "procedure,_shortened": "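Agonist 1alpha,25-dihydroxyvitamin D3 (3 nM in well) was added with each compound to VDR-bla cells preincubated 4 h. Cells stood 16 h at 37C, then FRET substrate 2 h at room temperature; fluorescence intensity recorded.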"}, "[16]": {"assay": "qHTS assay to identify small molecule agonists of the vitamin D receptor (VDR) signaling pathway - cell viability counter screen (AID 743224); note: potency is the fitted concentration of half-maximal effect; nearly all actives have a fitted effect of over 50% in size", "details": "VDR-bla HEK293T viability, CellTiter-Glo luminescence, 16 h; activity change, negative = cytotoxicity: at 62.6 µM (top of the series)", "procedure,_shortened": "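Cytotoxicity counter screen: VDR-bla cells, 16 h compound exposure at 37C, 5% CO2; CellTiter-Glo luminescence, 30 min RT, same wells as bla read.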"}, "[17]": {"assay": "qHTS assay for small molecule agonists of the antioxidant response element (ARE) signaling pathway - cell viability counter screen (AID 743203; calls by dose curve; note: potency is the fitted concentration of half-maximal effect; nearly all actives have a fitted effect of over 55% in size)", "details": "ARE-bla HepG2 viability, CellTiter-Glo luminescence, 16 h; viability change, negative = cytotoxic: at 73.3 µM (top of the series)", "procedure,_shortened": "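Luminescence read-out (CellTiter-Glo, 30 min at room temperature) measured cell viability in the same wells as the ARE beta-lactamase reporter. HepG2 ARE-bla cells were treated with compounds for 16 hrs at 37C/5% CO2.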"}}, "note": "Several values for one entry are separate records, joined by “and”; a condition that tells them apart may be missing. Identical values can stand only once. Inconclusive means that the source gave no clear call. Such entries were picked first, then a sample of the others. For some of these results: Where the call is inconclusive, the potency comes from a doubtful curve fit. Activity calls are given as the source filed them. Unless noted, calls come from the whole dose curve; as a rule, active = well fitted curve in the direction sought with a large enough effect in the repeat runs; inconclusive = weak or mixed curves; inactive = no such curve, though single readings can be large; an effect the other way counts as inactive or inconclusive. Tags give direction and shape of the fitted curve or compound fluorescence and quenching.", "data": [{"compound": "CN1CCN(CCC(=O)N2c3ccccc3Sc3ccc(C(F)(F)F)cc32)CC1", "values": [{"measurement": "Potency", "setting": "[1]", "value": "active: 18.8 µM"}, {"measurement": "Potency", "setting": "[2]", "value": "inconclusive: 11.9 µM [inhibitor]"}, {"measurement": "Potency", "setting": "[3]", "value": "active: 33.5 µM"}, {"measurement": "Potency", "setting": "[4]", "value": "inconclusive: 33.5 µM"}, {"measurement": "Potency", "setting": "[5]", "value": "active: 16.8 µM"}, {"measurement": "Potency", "setting": "[6]", "value": "active: 29.8 µM"}, {"measurement": "Potency", "setting": "[7]", "value": "inconclusive: 33.5 µM [inhibitor]"}, {"measurement": "Potency", "setting": "[8]", "value": "active: 21.1 µM"}, {"measurement": "Potency", "setting": "[9]", "value": "active: 33.5 µM"}]}, {"compound": "CC[C@]1(O)C[C@@H]2CN(CCc3c([nH]c4ccccc34)[C@@](C(=O)OC)(c3cc4c(cc3OC)N(C)[C@H]3[C@@](O)(C(=O)OC)[C@H](OC(C)=O)[C@]5(CC)C=CCN6CC[C@]43[C@@H]65)C2)C1", "values": [{"measurement": "Potency", "setting": "[1]", "value": "active: 16.8 µM and active: 15 µM"}, {"measurement": "ratio activity, negative = inhibition", "setting": "[2]", "value": "inconclusive: -21.9% and inconclusive: -37.7%"}, {"measurement": "Potency", "setting": "[4]", "value": "inconclusive: 0.211 µM [rising, full curve, poor fit]"}, {"measurement": "activation", "setting": "[4]", "value": "inconclusive: 31.1%"}, {"measurement": "Potency", "setting": "[10]", "value": "inconclusive: 15 µM [cytotoxic, single point] and inconclusive: 2.66 µM [cytotoxic, full curve]"}, {"measurement": "Potency", "setting": "[11]", "value": "inconclusive: 29.8 µM [activator, single point]"}, {"measurement": "Potency", "setting": "[12]", "value": "inconclusive: 47.3 µM [cytotoxic, partial curve, poor fit]"}, {"measurement": "Potency", "setting": "[13]", "value": "inconclusive: 2.98 µM [rising, full curve]"}, {"measurement": "viability change, negative = cytotoxic", "setting": "[5]", "value": "inconclusive: -15.9% [cytotoxic]"}, {"measurement": "ratio activity, negative = inhibition", "setting": "[6]", "value": "inconclusive: -30.1%"}, {"measurement": "Potency", "setting": "[8]", "value": "inactive"}, {"measurement": "Potency", "setting": "[9]", "value": "inconclusive: 26.6 µM [falling, partial curve, poor fit]"}, {"measurement": "Potency", "setting": "[14]", "value": "inconclusive: 33.5 µM [rising, partial curve, poor fit]"}, {"measurement": "activity change, negative = inhibition", "setting": "[15]", "value": "inconclusive: -23.3%"}, {"measurement": "Potency", "setting": "[16]", "value": "inconclusive: 33.5 µM [cytotoxic, single point]"}]}, {"compound": "CNC(=S)NN", "values": [{"measurement": "Potency", "setting": "[1]", "value": "active: 19.3 µM"}, {"measurement": "activation", "setting": "[4]", "value": "inconclusive: 3.88%"}, {"measurement": "Potency", "setting": "[17]", "value": "inconclusive: 21.7 µM [cytotoxic, partial curve, poor fit]"}, {"measurement": "Potency", "setting": "[11]", "value": "inconclusive: 12.3 µM"}, {"measurement": "Potency", "setting": "[13]", "value": "inconclusive: 38.9 µM [rising, partial curve, poor fit]"}, {"measurement": "Potency", "setting": "[5]", "value": "active: 11 µM"}, {"measurement": "Potency", "setting": "[6]", "value": "inconclusive: 21.9 µM"}, {"measurement": "Potency", "setting": "[9]", "value": "inconclusive: 61.6 µM [falling, single point]"}, {"measurement": "Potency", "setting": "[14]", "value": "inconclusive: 3.47 µM [rising, partial curve, poor fit]"}, {"measurement": "Potency", "setting": "[16]", "value": "active: 5.49 µM"}]}]}
